First the molecules themselves.
B1: TEV protease; numbered along this chain (parent)
chain: MGESLFKGPRDYNPISSSICHLTNESDGHTTSLYGIGFGPFIITNKHLFRRNNGTLVVQSLHGVFKVKDTTTLQQHLVDGRDMIIIRMPKDFPPFPQKLKFREPQREERICLVTTNFQTKSMSSMVSDTSCTFPSGDGIFWKHWIQTKDGQCGSPLVSTRDGFIVGIHSASNFTNTNNYFTSVPKNFMELLTNQEAQQWVSGWRLNADSVLWGGHKVFMVKPEEPFQPVKEATQL

Variants of B1 are the subject of this experiment. Kind of experiment: raw area under fraction-flipped curve 0-4 h after induction (AUC4h, not background-subtracted), DNA-recorder readout of cleavage of the substrate (dimensionless); higher = more cleavage of the substrate by the protease variant. To be noted: temperature: 34 °C; time window: 0-4 h after rhamnose induction. As to the method:
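In vivo DNA recorder in E. coli TOP10(DE3) ΔrhaA at 34 °C. Each TEVp single-site mutant (parent TEVp 0) is paired with a single-site variant of the 7-mer TEVs (canonical ENLYFQ|S). The substrate sits between flexible linkers in a Bxb1-sfGFP-TEVs-SsrA fusion, so cleavage stabilises Bxb1 and speeds flipping of a recombination array, read by NGS. The value is the raw area under the fraction-flipped curve over 0-4 h after rhamnose induction (AUC4h), with ≥20 reads per time point. It is not background-subtracted; inactive controls average about 0.047.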

The other results are listed elsewhere or left out. Sequences were assembled here from the parent chain. Values near 0.05 are background.
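Further: Bxb1 expression induced with 0.2% (w/v) L-rhamnose at OD600 near 0.5, cultures sampled hourly, flipped fraction per protease–substrate barcode pair counted by paired-end Illumina sequencing.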

Consider MGESLFKGPRDYNPISSSICHLTNESDGHTTSLYGIGFGPFIITNKHLFRRNNGTLVVQSLHGVFKVKDTTTLQQHLVDGRDMIIIRMPKDFPPFPQKLKFREPQREERICLVTTNFQTKSMSSMVSDTSCTFPSGDGIFWKHWIQTKDGQCGSPLVDTRDGFIVGIHSASNFTNTNNYFTSVPKNFMELLTNQEAQQWVSGWRLNADSVLWGGHKVFMVKPEEPFQPVKEATQL [S158D], for which the “area with substrate CNLYFQS” value came out at 0.0556, the “area with substrate DNLYFQS” value is 0.0595, the “area with substrate FNLYFQS” value was 0.0433 and the “area with substrate HNLYFQS” value stood at 0.0692. Further, the “area with substrate INLYFQS” value came to 0.0361, the “area with substrate LNLYFQS” value was 0.0522, the “area with substrate NNLYFQS” value turned out to be 0.0523 and the “area with substrate QNLYFQS” value is 0.0483. Moreover, the “area with substrate TNLYFQS” value was 0.0333 and the “area with substrate WNLYFQS” value came to 0.0543.
Turning to MGESLFKGPRDYNPISSSICHLTNESDGHTTSLYGIGFGPFIITNKHLFRRNNGTLVVQSLHGVFKVKDTTTLQQHLVDGRDMIIIRMPKDFPPFPQKLKFREPQREERICLVTTNFQTKSMSSMVSDTSCTFPSGDGIFWKHWIQTKDGQCGSPLVATRDGFIVGIHSASNFTNTNNYFTSVPKNFMELLTNQEAQQWVSGWRLNADSVLWGGHKVFMVKPEEPFQPVKEATQL [S158A], the “area with substrate CNLYFQS” value is 0.0514, the “area with substrate DNLYFQS” value stood at 0.0758, the “area with substrate FNLYFQS” value was 0.076 and the “area with substrate GNLYFQS” value was determined as 0.0587. In addition, the “area with substrate HNLYFQS” value is 0.0637, the “area with substrate KNLYFQS” value stood at 0.0817, the “area with substrate MNLYFQS” value was 0.0738 and the “area with substrate PNLYFQS” value turned out to be 0.0683. Moreover, the “area with substrate RNLYFQS” value came to 0.0544, the “area with substrate SNLYFQS” value was found to be 0.0579 and the “area with substrate YNLYFQS” value is 0.0802.
Consider MGESLFKGPRDYNPISSSICHLTNESDGHTTSLYGIGFGPFIITNKHLFRRNNGTLVVQSLHGVFKVKDTTTLQQHLVDGRDMIIIRMPKDFPPFPQKLKFREPQREERICLVTTNFQTKSMSSMVSDTSCTFPSGDGIFWKHWIQTKDQQCGSPLVSTRDGFIVGIHSASNFTNTNNYFTSVPKNFMELLTNQEAQQWVSGWRLNADSVLWGGHKVFMVKPEEPFQPVKEATQL [G150Q], for which the “area with substrate CNLYFQS” value is 0.0647, the “area with substrate DNLYFQS” value turned out to be 0.0493, the “area with substrate GNLYFQS” value is 0.071 and the “area with substrate HNLYFQS” value was 0.0551. Also, the “area with substrate KNLYFQS” value was 0.0604, the “area with substrate LNLYFQS” value amounted to 0.0617, the “area with substrate NNLYFQS” value is 0.0594 and the “area with substrate PNLYFQS” value amounted to 0.0627. Also, the “area with substrate SNLYFQS” value amounted to 0.0694, the “area with substrate WNLYFQS” value came to 0.0436 and the “area with substrate YNLYFQS” value was found to be 0.0652.
As to MGESLFKGPRDYNPISSSICHLTNESDGHTTSLYGIGFGPFIITNKHLFRRNNGTLVVQSLHGVFKVKDTTTLQQHLVDGRDMIIIRMPKDFPPFPQKLKFREPQREERICLVTTNFQTKSMSSMVSDTSCTFPSGDGIFWKHWIQTKDPQCGSPLVSTRDGFIVGIHSASNFTNTNNYFTSVPKNFMELLTNQEAQQWVSGWRLNADSVLWGGHKVFMVKPEEPFQPVKEATQL [G150P], the “area with substrate CNLYFQS” value was 0.0576, the “area with substrate DNLYFQS” value was found to be 0.0515, the “area with substrate FNLYFQS” value is 0.0544 and the “area with substrate GNLYFQS” value turned out to be 0.0537. In addition, the “area with substrate HNLYFQS” value was 0.0628, the “area with substrate INLYFQS” value stood at 0.0604, the “area with substrate KNLYFQS” value was determined as 0.0597 and the “area with substrate LNLYFQS” value came to 0.0672. Besides, the “area with substrate MNLYFQS” value was found to be 0.0536, the “area with substrate NNLYFQS” value amounted to 0.0569, the “area with substrate PNLYFQS” value was 0.0605 and the “area with substrate QNLYFQS” value is 0.0489. The “area with substrate RNLYFQS” value was 0.06, the “area with substrate SNLYFQS” value worked out at 0.0643, the “area with substrate TNLYFQS” value worked out at 0.0603 and the “area with substrate VNLYFQS” value turned out to be 0.0662. For the same variant, the “area with substrate WNLYFQS” value turned out to be 0.0456.
For the variant MGESLFKGPRDYNPISSSICHLTNESDGHTTSLYGIGFGPFIITNKHLFRRNNGTLVVQSLHGVFKVKDTTTLQQHLVDGRDMIIIRMPKDFPPFPQKLKFREPQREERICLVTTNFQTKSMSSMVSDTSCTFPSGDGIFWKHWIQTKDGQCPSPLVSTRDGFIVGIHSASNFTNTNNYFTSVPKNFMELLTNQEAQQWVSGWRLNADSVLWGGHKVFMVKPEEPFQPVKEATQL [G153P], the “area with substrate CNLYFQS” value was 0.0451, the “area with substrate DNLYFQS” value amounted to 0.044, the “area with substrate FNLYFQS” value was 0.0473 and the “area with substrate GNLYFQS” value is 0.0482. Besides, the “area with substrate INLYFQS” value worked out at 0.0451, the “area with substrate KNLYFQS” value was 0.0447, the “area with substrate MNLYFQS” value was found to be 0.0404 and the “area with substrate PNLYFQS” value was determined as 0.0379. For the same variant, the “area with substrate RNLYFQS” value came out at 0.0539, the “area with substrate SNLYFQS” value worked out at 0.0499, the “area with substrate TNLYFQS” value stood at 0.0404 and the “area with substrate VNLYFQS” value amounted to 0.0421. Moreover, the “area with substrate WNLYFQS” value was found to be 0.045.
As for MGESLFKGPRDYNPISSSICHLTNESDGHTTSLYGIGFGPFIITNKHLFRRNNGTLVVQSLHGVFKVKDTTTLQQHLVDGRDMIIIRMPKDFPPFPQKLKFREPQREERICLVTTNFQTKSMSSMVSDTSCTFPSGDGIFWKHWIQTKDGQCGSNLVSTRDGFIVGIHSASNFTNTNNYFTSVPKNFMELLTNQEAQQWVSGWRLNADSVLWGGHKVFMVKPEEPFQPVKEATQL [P155N], the “area with substrate CNLYFQS” value was found to be 0.055, the “area with substrate DNLYFQS” value is 0.0535, the “area with substrate FNLYFQS” value amounted to 0.049 and the “area with substrate GNLYFQS” value turned out to be 0.0474. The “area with substrate INLYFQS” value turned out to be 0.0405, the “area with substrate KNLYFQS” value was 0.0507, the “area with substrate LNLYFQS” value was 0.0485 and the “area with substrate MNLYFQS” value worked out at 0.0555. Further, the “area with substrate NNLYFQS” value was determined as 0.0484, the “area with substrate PNLYFQS” value came out at 0.0513, the “area with substrate SNLYFQS” value was 0.0413 and the “area with substrate TNLYFQS” value came to 0.0527. Also, the “area with substrate VNLYFQS” value was 0.0375, the “area with substrate WNLYFQS” value stood at 0.0392 and the “area with substrate YNLYFQS” value turned out to be 0.024.
With MGESLFKGPRDYNPISSSICHLTNESDGHTTSLYGIGFGPFIITNKHLFRRNNGTLVVQSLHGVFKVKDTTTLQQHLVDGRDMIIIRMPKDFPPFPQKLKFREPQREERICLVTTNFQTKSMSSMVSDTSCTFPSGDGIFWKHWIQTKDGQCGSHLVSTRDGFIVGIHSASNFTNTNNYFTSVPKNFMELLTNQEAQQWVSGWRLNADSVLWGGHKVFMVKPEEPFQPVKEATQL [P155H], the “area with substrate CNLYFQS” value was found to be 0.0457, the “area with substrate DNLYFQS” value is 0.0547, the “area with substrate GNLYFQS” value is 0.0501 and the “area with substrate HNLYFQS” value was found to be 0.0483. The “area with substrate INLYFQS” value is 0.0514, the “area with substrate KNLYFQS” value is 0.056, the “area with substrate LNLYFQS” value was 0.045 and the “area with substrate MNLYFQS” value was 0.0484. Besides, the “area with substrate NNLYFQS” value was determined as 0.0943, the “area with substrate PNLYFQS” value is 0.0476, the “area with substrate QNLYFQS” value came to 0.0368 and the “area with substrate SNLYFQS” value worked out at 0.0544. For the same variant, the “area with substrate TNLYFQS” value stood at 0.0496 and the “area with substrate WNLYFQS” value turned out to be 0.0523.
As for MGESLFKGPRDYNPISSSICHLTNESDGHTTSLYGIGFGPFIITNKHLFRRNNGTLVVQSLHGVFKVKDTTTLQQHLVDGRDMIIIRMPKDFPPFPQKLKFREPQREERICLVTTNFQTKSMSSMVSDTSCTFPSGDGIFWKHWIQTKDGQCGSVLVSTRDGFIVGIHSASNFTNTNNYFTSVPKNFMELLTNQEAQQWVSGWRLNADSVLWGGHKVFMVKPEEPFQPVKEATQL [P155V], the “area with substrate CNLYFQS” value was 0.0591, the “area with substrate DNLYFQS” value is 0.0698, the “area with substrate GNLYFQS” value stood at 0.0635 and the “area with substrate HNLYFQS” value is 0.0734. In addition, the “area with substrate INLYFQS” value turned out to be 0.0621, the “area with substrate LNLYFQS” value came to 0.06, the “area with substrate NNLYFQS” value came to 0.0573 and the “area with substrate PNLYFQS” value was determined as 0.0726. Besides, the “area with substrate SNLYFQS” value came to 0.055, the “area with substrate TNLYFQS” value amounted to 0.0637, the “area with substrate VNLYFQS” value is 0.0755 and the “area with substrate WNLYFQS” value stood at 0.0573. Moreover, the “area with substrate YNLYFQS” value came out at 0.0348.
As for MGESLFKGPRDYNPISSSICHLTNESDGHTTSLYGIGFGPFIITNKHLFRRNNGTLVVQSLHGVFKVKDTTTLQQHLVDGRDMIIIRMPKDFPPFPQKLKFREPQREERICLVTTNFQTKSMSSMVSDTSCTFPSGDGIFWKHWIQTKVGQCGSPLVSTRDGFIVGIHSASNFTNTNNYFTSVPKNFMELLTNQEAQQWVSGWRLNADSVLWGGHKVFMVKPEEPFQPVKEATQL [D149V], the “area with substrate CNLYFQS” value came out at 0.057, the “area with substrate DNLYFQS” value was determined as 0.0716, the “area with substrate FNLYFQS” value turned out to be 0.051 and the “area with substrate GNLYFQS” value is 0.0259. Further, the “area with substrate HNLYFQS” value came out at 0.0282, the “area with substrate KNLYFQS” value came to 0.0624, the “area with substrate PNLYFQS” value was 0.0515 and the “area with substrate VNLYFQS” value is 0.0688. Moreover, the “area with substrate WNLYFQS” value stood at 0.0657 and the “area with substrate YNLYFQS” value amounted to 0.0629.
